Data reported in the BET-seq Pho4 binding data (Le et al. 2018).
The list shows a part of the results. Values were computed here from the reads of four pooled replicates and scatter widely.

The sequences below were run against T1, Pho4 (S. cerevisiae) (UniProt P07270) (assay: relative binding free energy (BET-seq); higher = weaker binding). Settings: reference: library average.
T1 sequence: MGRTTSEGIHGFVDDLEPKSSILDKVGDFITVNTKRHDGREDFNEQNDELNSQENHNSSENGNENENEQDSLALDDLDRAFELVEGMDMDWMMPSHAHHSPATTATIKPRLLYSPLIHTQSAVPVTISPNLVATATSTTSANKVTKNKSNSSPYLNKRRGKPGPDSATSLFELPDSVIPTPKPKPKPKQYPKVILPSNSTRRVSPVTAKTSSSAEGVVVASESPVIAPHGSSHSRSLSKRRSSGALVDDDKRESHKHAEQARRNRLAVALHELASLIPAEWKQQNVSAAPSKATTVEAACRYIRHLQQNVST

Sequence	relative binding free energy [kcal/mol]
CCTGGCACGTGAGTTT	0.18
TTTAACACGTGACGTT	0.25
ATTTGCACGTGTAATG	0.06
GTTTTCACGTGCAATG	0.34
GGGTTCACGTGCGGTA	0.18
GGTGTCACGTGGAGCG	-0.02
TTTTTCACGTGGAAGC	0.29
TAATCCACGTGTGGGT	0.05
GTTGCCACGTGCTTTG	-0.09
TTCAACACGTGGTCGG	-0.02
TTAGACACGTGAGATG	0.19
AGTGCCACGTGGGTGG	-0.24
TGCTGCACGTGCGGGC	-0.09
TAGTACACGTGGGGTA	-0.08
AGAGTCACGTGTTTAT	0.23
TGGGACACGTGGGGTA	-0.2
GGTTGCACGTGTGGTA	0.12
AATAGCACGTGGCTGG	-0.12
AGATTCACGTGTGACG	0.27
GATCTCACGTGAGTGT	0.44
CGTTGCACGTGAGCTG	0.1

Sequence	relative binding free energy [kcal/mol]
TCGTACACGTGAGGTT	0.28
GAGAACACGTGGGGTA	-0.06
GAATTCACGTGGGAGG	0.27
TGGCGCACGTGAGGTT	0.23
ATTGACACGTGCTTTT	-0.15
TTGGGCACGTGGCTCG	-0.11
CTTTTCACGTGCGGGT	0.22
GTCTTCACGTGGTGCA	0.29
TGTGGCACGTGAAACG	-0.02
TGATACACGTGTATGT	-0.04
GTTCTCACGTGGTTGC	0.17
ATTAGCACGTGGATGC	0
ATTCGCACGTGTGGCG	0.04
TAGCGCACGTGGGTGT	-0.26
TGAGGCACGTGCAATG	-0.08
CGGGCCACGTGTGGTT	0.12
TGGTTCACGTGGCGAT	0.27
GCATGCACGTGTTTTA	0.01
CTTTACACGTGAGGCT	0.31
TGAGTCACGTGACGGG	0.19
TGAGGCACGTGATTCT	0.01

Sequence	relative binding free energy [kcal/mol]
CGACGCACGTGGTGGT	-0.08
TGTTTCACGTGGCGCT	0.15
TGGTCCACGTGTTGAT	0.02
GCTGTCACGTGTCGAG	0.38
TCGTACACGTGGGGGA	-0.05
CGTGGCACGTGCAGTT	-0.02
TTTTCCACGTGTTGGG	0.13
GGGGTCACGTGGCAGA	0.2
GGGTCCACGTGTGTGT	0.09
CTGAGCACGTGGAGGT	-0.01
TGATACACGTGGTTTA	-0.08
TCGGACACGTGGTGGG	-0.08
AGAGTCACGTGAAAGG	0.32
AGAATCACGTGTTTGG	0.16
GGTCTCACGTGCTGTG	0.18
AGGATCACGTGTTAAG	0.26
TGAATCACGTGTAAGT	0.34
TGCGGCACGTGTGTAG	-0.09
AATGTCACGTGTGAAA	0.23
GTGCGCACGTGTAAGG	-0.14
TTGGCCACGTGGGTGC	-0.16
